Experimental data as given in ChEMBL document CHEMBL1201862, “PubChem BioAssay data set” (2004).

test system: NCI-H322M; test: NCI tumour cell line growth inhibition, 48 h

SMILES	GI50
CCCCS/C(=C(/C#N)C(N)=O)c1cc2c([nH]1)CCCC2	inactive: 14.6 µM
CSc1ncnc2c1ncn2CC(=O)C1CCC2C3CCC4=CC(=O)CCC4(C)C3CCC12C (stereo not given)	inactive: 19.6 µM
O=C(CCc1ccc(O)c(O)c1)NCCc1cc(O)cc(O)c1	inactive: > 100 µM
CCOc1cc(NC(C)=O)ccc1C(=O)NN1C(=O)/C(=C/c2cc(OC)c(OC)c(OC)c2)N=C1c1ccccc1	inactive: > 100 µM
Cc1ccc(S(=O)(=O)N/N=C2\CC3C4CCC3C2C4)cc1 (stereo not given)	inactive: > 100 µM
O=C1OC(=O)c2c1nc1ccccc1c2-c1ccccc1	inactive: > 100 µM
CCCCCCCCCc1cc(=O)c2c(O)cccc2o1	inactive: > 100 µM
CC(C)(C)c1cc2c(c(C(C)(C)C)c1O)CC(=O)O2	inactive: 68.5 µM
CC(=O)N[C@@H](Cc1ccc(O)cn1)C(=O)NCc1ccc(Cl)cc1	inactive: > 100 µM
CCOc1ccc(NCC(=O)N2CC(=O)Nc3ccccc32)cc1	inactive: > 100 µM
CCCCc1c2c(nc3c1CCC/C3=C\c1ccccc1)C(=O)CCC2	inactive: 21.1 µM
O=c1cc(/C=C/c2ccccc2)c2ccc(O/C(=C\c3ccccc3)c3nc4ccccc4c(=O)o3)cc2o1	inactive: 26.9 µM
Cc1ccccc1-n1c(=O)sc2c(=O)n(-c3ccccc3)c(=S)[nH]c21	inactive: > 100 µM
CC(=O)NNc1nc(C)c(C(=O)/C=C/c2ccc(N(C)C)cc2)s1	inactive: > 100 µM
O=C1Nc2ccccc2/C1=N/Nc1nc(-c2ccccc2)cs1	inactive: 63 µM
Cc1ccc(/N=N/c2c(-c3ccccc3)nn(C(=O)CC(=O)Nc3ccc(Cl)cc3)c2-c2ccccc2)cc1	inactive: 38.7 µM
CC(C)=NOC(=O)CNC(=O)C(Cc1ccccc1)NC(=O)C(C)NC(=O)OC(C)(C)C (stereo not given)	inactive: > 100 µM
COC(O)C(=O)c1c2c(cc3c1CC1(Cc4cc5c(cc4C1)CCC5)C3)CCC2 (stereo not given)	inactive: 14.8 µM
O=C(O)c1c([N+](=O)[O-])cc(C(F)(F)F)cc1[N+](=O)[O-]	inactive: > 100 µM
CC1C[C@]2(C)C(=S)Nc3ccccc3[C@@H]2Nc2ccccc21 (stereo not given in full)	inactive: 15.9 µM
CCN(C1=CC(=O)NC2CCCCN12)c1ccccc1 (stereo not given)	inactive: > 100 µM
COc1cc(C2c3cc4c(cc3C3OC[C@@H]2C3CO)OCO4)cc(OC)c1OC (stereo not given in full)	inactive: 42.4 µM

SMILES	GI50
O=C1/C(=C/c2ccccc2)N=C2Sc3c([nH]cnc3=O)N12	inactive: > 100 µM
CC1(C)CC2=NO[Se]3=C2C(=NO3)C1	inactive: 2.4 µM
CC(C)CCC[C@@H](C)C1CCC2[C@@H]3CC=C4C[C@@H](OC(=O)CCC(=O)NCC[N+](C)(C)CCCS(=O)(=O)[O-])CC[C@]4(C)C3CC[C@@]21C (stereo not given in full)	inactive: 22.3 µM
Cc1ccc(-c2[nH]c(=O)n(C3OC(CO)C(O)C(O)C3O)c(=O)c2C#N)cc1 (stereo not given)	inactive: > 100 µM
Cc1c2c(n(C)c1C)C(=O)C1C(C2=O)C2(C)c3ccccc3C1(C)c1ccccc12 (stereo not given)	inactive: > 100 µM
COc1ccc(/C(=N/O)C(c2ccc(OC)cc2)C2C(=O)Oc3ccccc32)cc1 (stereo not given)	inactive: > 100 µM
COC(=O)C(Cc1nc2ccc(Cl)cc2nc1O)/C(=N/O)C(=O)Nc1cccc(Cl)c1C (stereo not given)	inactive: > 100 µM
CC(=O)Nc1ccc(-c2nnc(SCC(=O)Nc3ccccc3Cl)o2)cc1	inactive: > 100 µM
Cc1nc(-c2ccc(Cl)cc2)cn2c1nc1ccccc12	inactive: > 100 µM
Cc1ccc(C(O)(c2ccc(C)cc2)c2ccccn2)cc1	inactive: > 100 µM
CN(CCCn1ccnc1[N+](=O)[O-])CCCn1ccnc1[N+](=O)[O-]	inactive: > 100 µM
OC1CC2CCCN(CCc3c1[nH]c1ccccc31)C2 (stereo not given)	inactive: > 100 µM
Cc1ccc2c(c1)-c1nc(N)c(C#N)c(-c3ccccc3)c1CCS2(=O)=O	inactive: 23.9 µM
CC1(C)C2CC3C(C)(C2)C31c1cc(Cl)ccc1N (stereo not given)	inactive: 17.3 µM
C1=CN2C[n+]3ccc4ccccc4c3N=C2c2ccccc21	inactive: 7.67 µM
O=C(CSc1nc2ccc(Cl)cc2c(=O)n1-c1ccccc1)N/N=C1\C(=O)Nc2ccc(F)cc21	inactive: 3.1 µM
Cc1[nH]c2ccccc2c1C1=NO/C(=N\O)C(c2c(C)[nH]c3ccccc23)C1 (stereo not given)	inactive: > 74.1 µM
COc1cc2ccc(/C(C)=N/OC(C)=O)cc2cc1OC	inactive: > 100 µM
CCCCCCc1cc(C=O)sc1-c1ccc(-c2sc(-c3ccc(-c4ccc(-c5cc(CCCCCC)c(-c6ccc(-c7sc(C=O)cc7CCCCCC)s6)s5)s4)s3)cc2CCCCCC)s1	inactive: > 100 µM
FC(F)(F)c1nc(-c2ccccc2)oc1Sc1oc(-c2ccccc2)nc1C(F)(F)F	inactive: > 100 µM
N#CCCN(CCC#N)c1ccc(C(=O)NN)cc1	inactive: > 100 µM
O=c1cc(/N=N\c2ccc(Br)cc2)[nH]c(=S)[nH]1	inactive: > 100 µM

SMILES	GI50
Cc1n[nH]c(=O)c2cc(-c3ccccc3)[nH]c12	inactive: > 100 µM
CN(C(=O)C12C3C4C1C1C2C3C41C(=O)O)C(C)(C)C (stereo not given)	inactive: > 100 µM
COC(=O)CCC(=O)Nc1cc(C)ccc1C	inactive: > 100 µM
C=C(CO)CC(O)c1ccccc1 (stereo not given)	inactive: > 100 µM
COC(=O)N1CC[C@@H]2CCC=C(c3cccc4c3OCO4)[C@@H]21	inactive: > 100 µM
O=C(NCCCCCCCCNC(=O)c1cc(-c2ccccc2)nc2ccccc12)c1cc(-c2ccccc2)nc2ccccc12	inactive: > 100 µM
O=C(Cc1ccc(Cl)c(Cl)c1)NCC1(N2CCCCC2)CCCCC1	inactive: > 100 µM
Sc1ccccc1S	inactive: > 100 µM
CCCN(CCC)C(=O)c1c(Cl)c2cccnc2n2c(C)cnc12	inactive: > 100 µM
O=C1[C@@H]2C(c3ccccc3Br)=NO[C@@H]2C(=O)N1c1ccc(Cc2ccc(N3C(=O)[C@H]4C(c5ccccc5Br)=NO[C@H]4C3=O)cc2)cc1	inactive: > 100 µM
C/C=C/C=C/c1nc(C#N)c(N)o1	inactive: > 100 µM
CCOC(=O)c1ccc(-n2nnc(C(N)=O)c2O)cc1	inactive: > 100 µM
C=CCC12CCC(=O)[C@@]1(C)CC=C(O)C2=O (stereo not given in full)	inactive: > 100 µM
COC(C)(C)C(O)C(O)C[C@H](C)C1CC=C2C1(C)CCC1[C@@]3(C)CCC(OC(C)=O)C(C)(C)C3CC(OC3OC(COC(C)=O)C(O)C(O)C3O)[C@@]21C (stereo not given in full)	inactive: 3.97 µM
CC1CC(C)C2OC2(C)C[C@H](C)C(=O)NC(C)C(=O)N(C)[C@H](Cc2c(Br)[nH]c3ccccc23)C(=O)N[C@@H](c2ccc(O)cc2)CC(=O)O1 (stereo not given in full)	active: 0.729 µM
C=CCCCCn1c2ccccc2c2c(C)c3c[n+](C)ccc3c(C)c21	active: 1.06 µM
CSc1ccc2c(cc1=O)[C@@H](NC(=O)c1ccc([N+](=O)[O-])cc1)CCc1cc(O)c(O)c(O)c1-2	inactive: 88.3 µM
CN(C)CCNc1nc(-c2cccs2)cc(-c2cccs2)n1	inactive: 11.9 µM
CCCCCC(=O)OCC1(CO)C/C(=C\CC(C(C)C)C(C)C)C(=O)O1 (stereo not given)	inactive: > 100 µM
CC1C2C=CC1C(c1c3ccc(=O)c(O)c-3oc3c(O)c(O)ccc13)C2C(=O)O (stereo not given)	inactive: 39.8 µM
COc1ccc2[nH]c3c(C)c4cc[n+](C)cc4c(C)c3c2c1	active: 0.519 µM

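Five compound concentrations were applied to cells in 96-well plates for 48 hours; endpoints were derived by simple linear interpolation of the resulting dose-response curve. At the GI50, growth is halved.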 Active and inactive are the calls of the source. No stated cut-off is given here; in the data, active = GI50 up to about 1.1 µM and inactive = higher.
